According to PubChem BioAssay AID488969 (Vanderbilt High Throughput Screening Facility, 2010):
Whole data set: some 110,000 compounds, median “z-score” near -0.1, cut for the highest 2% near 2. The list shows a part of the results.

Target: Metabotropic glutamate receptor 8 (Rattus norvegicus) (UniProt P70579)
Assay: rat mGluR8 modulators via GIRK flux, primary screen, cell-based, thallium flux, HTS (AID 488969)
Settings: HEK293 rat mGluR8, GIRK (G protein-gated inwardly rectifying potassium channel) thallium flux, FluoZin2; at 10 µM; stronger effect = higher value

Sequence of UniProt P70579 (P70579 whole entry, looked up): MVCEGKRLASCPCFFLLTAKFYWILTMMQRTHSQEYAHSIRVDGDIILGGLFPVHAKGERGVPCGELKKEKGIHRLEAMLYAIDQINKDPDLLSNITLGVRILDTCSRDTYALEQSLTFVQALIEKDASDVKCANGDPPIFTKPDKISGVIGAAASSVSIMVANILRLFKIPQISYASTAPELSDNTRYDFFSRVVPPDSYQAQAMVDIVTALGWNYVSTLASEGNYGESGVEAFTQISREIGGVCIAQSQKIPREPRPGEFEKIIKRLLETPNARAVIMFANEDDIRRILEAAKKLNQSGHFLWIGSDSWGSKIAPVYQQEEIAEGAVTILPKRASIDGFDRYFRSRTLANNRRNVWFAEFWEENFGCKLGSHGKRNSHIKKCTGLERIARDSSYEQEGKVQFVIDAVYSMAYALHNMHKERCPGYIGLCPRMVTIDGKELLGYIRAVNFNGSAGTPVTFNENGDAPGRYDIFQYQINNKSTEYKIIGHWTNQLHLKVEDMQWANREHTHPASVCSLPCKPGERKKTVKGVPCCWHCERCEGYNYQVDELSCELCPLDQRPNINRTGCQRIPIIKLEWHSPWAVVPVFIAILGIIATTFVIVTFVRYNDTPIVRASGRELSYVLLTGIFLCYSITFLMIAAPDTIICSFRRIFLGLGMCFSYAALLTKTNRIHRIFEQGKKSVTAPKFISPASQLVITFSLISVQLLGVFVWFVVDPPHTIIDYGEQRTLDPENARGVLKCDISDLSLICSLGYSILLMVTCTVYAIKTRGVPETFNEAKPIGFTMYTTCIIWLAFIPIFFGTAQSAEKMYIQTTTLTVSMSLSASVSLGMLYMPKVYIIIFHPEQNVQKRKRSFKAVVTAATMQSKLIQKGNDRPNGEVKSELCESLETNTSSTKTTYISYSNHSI

Structure (SMILES) | z-score
CCN(CC)CCCN=Cc1c(O)n(-c2cccc(C)c2C)c(=O)[nH]c1=O | 0.0751
Cc1occc1C(=O)N1CCC2(CC1)OCCO2 | -0.343
O=C1C2CCCN2C(c2cccs2)N1c1ccccn1 (configuration not stated) | 0.469
Cc1cc([P+](=O)O)c(C)n1-c1ccc(Br)cc1 | 0.727
CCOc1cccc(CNC2CN3CCC2CC3)c1 (configuration not stated) | 0.201
COC(=NC1CCCC1)C(O)c1c[nH]c2ccccc12 (configuration not stated) | -0.179
CCC(CC)C1C(C#N)=C(N)Oc2c1c(=O)oc1ccccc21 (configuration not stated) | -0.103
Cc1ccc(/C=C2/C(=O)NC(=O)N(CC3CCCO3)C2=O)s1 (configuration not stated) | -0.582
Cc1cc(OCc2ccc([N+](=O)[O-])cc2)c2c3c(c(=O)oc2c1)CCCC3 | -0.103
Clc1ccccc1CN1CCN(c2ccccc2Cl)CC1 | 0.841
N/C(=N\[N+](=O)[O-])N/N=C/c1ccc(O)cc1 | -0.249
CC1N(O)C2CCCCCC2N1O (configuration not stated) | -0.06
c1ccc(CNCCc2ccc3c(c2)OCO3)nc1 | -0.496
CCC(C)C1N=C(c2ccccc2)c2cc(Cl)ccc2N(CC(=O)NCc2ccco2)C1=O (configuration not stated) | -0.0258
NCC(CC(=O)O)c1ccc(Cl)cc1 (configuration not stated) | -0.308
CCOc1ccc(Br)c(C2(O)CC(C)N(C)CC2C)c1 (configuration not stated) | 2.44

Structure (SMILES) | z-score
Cc1nnc(SCc2nc3ccccc3c(=O)n2-c2ccccc2Cl)n1N | 0.0121
CC1(C)CC(=O)C=C(NCCN2CCN(C(=O)Cc3ccc(Cl)cc3)CC2)C1 | 0.295
COc1ccc(CN2CCCCC2c2cccnc2)cc1C (configuration not stated) | 0.361
COCCOC(=O)C1=C(N)OC(C)=C(C(=O)OC)C12C(=O)Nc1ccccc12 (configuration not stated) | 0.0698
CC1=NN(c2ccccc2)C(=O)C1/C=C1\C(=O)NC(=O)N(c2cc(C)cc(C)c2)C1=O (configuration not stated) | -0.0364
COc1ccc(C)cc1NC(=O)c1c(C)nn(Cc2ccccc2)c1Cl | -0.162
COc1ccc(C(=O)CC2C(=O)N(C)C(=O)N(C)C2=O)cc1 | 0.025
CN(C)C(=O)OCc1n(C)cc[n+]1C | -0.382
O=c1[nH]c(O)c(C=NC2CCN(Cc3ccccc3)CC2)c(=O)[nH]1 | -0.0295
COc1ccc(C(=O)C2CN(C)CC2C(=O)c2ccc(OC)cc2)cc1 (configuration not stated) | 0.0315
Cc1ccc(-n2c(O)c(/C=N/NC(=O)c3ccncc3)c(=O)[nH]c2=O)cc1 | 1.34
CC(C)N1C(=O)CCC1C(=O)N1CCC2(CC1)OCCO2 (configuration not stated) | 0.254
NCC1(c2ccc3c(c2)OCCO3)CCCC1 | -0.026
COc1ccc(C2SCC(=O)Nc3c2c(C)nn3C2CCOC(C)(C)C2)cc1 (configuration not stated) | -0.154
Cc1nn(Cc2ccccc2Cl)c(Cl)c1C(=O)OCC(=O)NCc1ccco1 | -0.981
O=C(Cn1c(=S)[nH]c2ccccc2c1=O)N1CCC2(CC1)OCCO2 | 0.264
